PubChem BioAssay AID624173 (National Center for Advancing Translational Sciences (NCATS), 2012)
Among all 410,000 compounds or so, about 490 (0.12%) were called active. This list was built around the results that the source calls inconclusive (neither active nor inactive); the mix of calls is not that of the screen. Calls follow the shape of the dose curve; as a rule, active = well fitted inhibition curve with a large enough effect; inconclusive = small, poorly fitted or top-dose-only effect; inactive = flat fitted curve, though single readings scatter. Potencies of inconclusive entries are doubtful fits and often do not repeat.

The molecules below were run against pyruvate kinase (Trypanosoma brucei) (UniProt Q57TT1) (assay: qHTS of Trypanosoma Brucei Inhibitors). Settings: TbPYK enzyme, Kinase-Glo Plus ATP luminescence, 45 min; series mostly up to 76.8 µM; activity, negative = inhibition: at the top concentration.
In short: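 Screened from lowest to highest concentration, compounds were pinned into TbPYK/substrate mixtures, and ADP (130 uM final) was added. Plates sat at room temperature for 45 min prior to Kinase-Glo Plus detection by luminescence.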
% is scaled to controls: 0 for no effect and ±100 for the full control effect; potency is read from the fitted curve at half-maximal effect; tags tell the direction and shape of the fitted curve.
Also: nearly all actives have a fitted effect of over 50% in size.

Which “activity, negative = inhibition” value does the source give for `COc1ccc(C(=O)N2CCCC(c3cc(C(=O)Nc4ccccc4)no3)C2)cc1` (stereo not given) here?
The value was inactive: 0.495%.

With `CCOC(=O)C1C(c2ccc3c(c2)OCO3)NC(=O)NC1(O)C(F)(F)F` (stereo not given) as the molecule, how does the Potency read?
Its Potency is inconclusive: 31.6 µM [inhibitor, single point].

`COc1cccc(Cn2c(C)c(CNC3CCCCC3)c(C(=O)O)c2C)c1` was tested. Which “activity, negative = inhibition” value did it give?
The value was inactive: -5%.

How did the “activity, negative = inhibition” value turn out when `Cc1c(C(=O)N(C)C)sc2c1c(=O)n(-c1ccc(Cl)c(Cl)c1)c(=O)n2CC(=O)N1CCCCC1C` (stereo not given) was run?
Its value is inactive: -2.18%.

How did the Potency turn out when `Nc1nnc(SCc2ccc(F)cc2)s1` was run?
Its Potency is inconclusive: 50.1 µM [inhibitor, single point].

`COc1ccc(-c2n[nH]c(=S)n2-c2ccc(C)cc2)cc1OC` was tested. Which Potency did it give?
The Potency was active: 5.01 µM.

`CCCN1CCN(CC2=C(C(=O)OCC)C(c3ccc(OC(C)C)cc3)NC(=O)N2)CC1` (stereo not given) was tested. Which “activity, negative = inhibition” value did it give?
Its value is inactive: -1.82%.

Which Potency does the source give for `CC1(C)CC(=O)C(=Cc2cn(CCC#N)nc2-c2ccc(Cl)cc2)C(=O)C1` here?
Its Potency is inconclusive: 22.4 µM [inhibitor, partial curve, poor fit].

With `Fc1ccc(C2=CC(c3ccco3)n3ncnc3N2)cc1` (stereo not given) as the molecule, how does the “activity, negative = inhibition” value read?
Its value is inactive: -11.8%.

With `CN(C)N=Nc1ccc2nc[nH]c2c1` as the molecule, how does the Potency read?
The Potency was inconclusive: 20 µM [inhibitor, partial curve].

`Nc1ccc(-c2n[nH]c(=O)c3ccccc23)cc1N` was tested. Which Potency did it give?
Its Potency is inconclusive: 2.51 µM [inhibitor, full curve, poor fit].

For `CN(C)C(=S)SC(=S)N(C)C`, which Potency is on record?
Its Potency is inconclusive: 31.6 µM [inhibitor, partial curve, poor fit].

Which Potency does the source give for `CCCC(=O)N(c1ccc2oc(=O)sc2c1)S(=O)(=O)c1cccs1` here?
Its Potency is inconclusive: 28.2 µM [inhibitor, single point].

For `CCc1ccc(NC(=O)c2sc3nc4n(c(=O)c3c2C)CCC4)cc1`, which “activity, negative = inhibition” value is on record?
Its value is inactive: 1.32%.

How did the Potency turn out when `CC(C)c1cnc2c(c1SCC(=O)NCc1ccccc1Cl)c(=O)n(C)c(=O)n2C` was run?
Its Potency is inconclusive: 50.1 µM [inhibitor, single point].

With `O=C(O/N=C1\CCCCC1c1ccc([N+](=O)[O-])cc1[N+](=O)[O-])c1c(F)cccc1F` (stereo not given) as the molecule, how does the Potency read?
The Potency was inconclusive: 39.8 µM [inhibitor, single point].

For `CN1CCN(Cc2cc(COCc3ccccc3)c3cccnc3c2O)CC1`, which “activity, negative = inhibition” value is on record?
Its value is inactive: -3.35%.

Which “activity, negative = inhibition” value does the source give for `CCCOc1ccc(-c2nc(SCC(=O)c3ccc(Cl)cc3)n[nH]2)cc1` here?
The value was inactive: -6.15%.

With `CC1CCC2C(=O)N(c3ccc(Cc4ccncc4)cc3)C(=O)C2C1` (stereo not given) as the molecule, how does the “activity, negative = inhibition” value read?
The value was inactive: 1.23%.

How did the Potency turn out when `O=C(CCCCCn1c(=S)[nH]c2ccsc2c1=O)NC1CCCCC1` was run?
The Potency was inconclusive: 31.6 µM [inhibitor, partial curve].

For `COc1cccc(/C=N/n2c(COc3ccccc3)n[nH]c2=S)c1O`, which Potency is on record?
Its Potency is inconclusive: 2.24 µM [inhibitor, partial curve, poor fit].

How did the Potency turn out when `Cc1ccc(/C=N/n2cc(-c3ccccc3)[nH]c2=S)s1` was run?
Its Potency is inconclusive: 2.51 µM [inhibitor, full curve].

With `Oc1cccc(C=Nc2cccc3ccccc23)c1O` as the molecule, how does the Potency read?
The Potency was inconclusive: 2.24 µM [inhibitor, full curve, poor fit].

Which “activity, negative = inhibition” value does the source give for `CCc1nnc(SCC(=O)Nc2ccc(Cl)cc2F)c2cc3occc3n12` here?
Its value is inactive: -5.1%.

`S=c1[nH]nc(NCCc2ccccc2)s1` was tested. Which Potency did it give?
The Potency was inconclusive: 10 µM [inhibitor, partial curve].

How did the “activity, negative = inhibition” value turn out when `Cc1noc(C)c1S(=O)(=O)Nc1ccc(C(=O)Nc2ccc(C(C)C)cc2)cc1` was run?
Its value is inactive: 3.32%.

How did the “activity, negative = inhibition” value turn out when `CCCN(CC1CC1)C(=O)CCc1nnc(C(OC)c2ccccc2)o1` (stereo not given) was run?
Its value is inactive: -1.85%.

How did the Potency turn out when `O=C(O)c1ccccc1C(=O)Nc1n[nH]c(=S)s1` was run?
Its Potency is inconclusive: 50.1 µM [inhibitor, partial curve, poor fit].

With `COc1cc(-c2cc(=O)c3c(O)c(OC)c(OC)c(O)c3o2)ccc1O` as the molecule, how does the Potency read?
Its Potency is inconclusive: 3.98 µM [inhibitor, full curve, poor fit].

With `Cc1cccc(-c2n[nH]c(=S)n2-c2ccccc2)c1[N+](=O)[O-]` as the molecule, how does the Potency read?
Its Potency is active: 7.08 µM.

With `CN1C(=O)N(C)C(=O)C2(Sc3ccccc3C2=O)C1=O` as the molecule, how does the Potency read?
Its Potency is inconclusive: 10 µM [inhibitor, partial curve, poor fit].

For `COc1cc(/C=C2\CCCc3c2nc2ccccc2c3C(=O)O)cc(OC)c1O`, which Potency is on record?
Its Potency is inconclusive: 31.6 µM [inhibitor, partial curve, poor fit].

For `Cc1ccc(N/N=C(\C#N)C(N)=S)c(C)c1`, which Potency is on record?
Its Potency is inconclusive: 15.8 µM [inhibitor, partial curve, poor fit].

`COc1ccc(C2CC(=O)N3CN(c4ccc(C)c(Cl)c4)CSC3=C2C#N)cc1OC` (stereo not given) was tested. Which Potency did it give?
The Potency was inconclusive: 20 µM [inhibitor, partial curve, poor fit].

With `Cc1ccc(C(=O)c2nc3c(n2O)CCCC3)cc1` as the molecule, how does the “activity, negative = inhibition” value read?
The value was inactive: -2.07%.

`COc1ccc(OC)c(NC(=O)c2nc(S(=O)(=O)Cc3ccccc3)ncc2Cl)c1` was tested. Which “activity, negative = inhibition” value did it give?
Its value is inactive: -10.5%.

With `CCOCCCNC1=C(Cl)C(=O)c2ccccc2C1=O` as the molecule, how does the Potency read?
The Potency was inconclusive: 25.1 µM [inhibitor, partial curve].

For `O=C(NCc1n[nH]c(=S)n1-c1cccc(C(F)(F)F)c1)c1ccc(S(=O)(=O)N2CCCCC2)cc1`, which Potency is on record?
Its Potency is inconclusive: 31.6 µM [inhibitor, partial curve, poor fit].

How did the Potency turn out when `O=C1CCCc2c1cc(C(=O)Nc1ccc(Br)cn1)c(=O)n2-c1ccccc1` was run?
Its Potency is inconclusive: 50.1 µM [inhibitor, single point].

Which Potency does the source give for `CC(C)NC(=O)c1ccc2c3n(nc2c1)-c1ccccc1CO3` here?
Its Potency is inconclusive: 12.6 µM [inhibitor, partial curve].

For `CC(=O)c1c(C)[nH]c(C2=NNC(=NC(C)(C)C)SC2)c1C`, which Potency is on record?
The Potency was inconclusive: 44.7 µM [inhibitor, single point].

With `COc1ccc(CC(=O)Nc2ncc([N+](=O)[O-])s2)cc1OC` as the molecule, how does the Potency read?
Its Potency is inconclusive: 17.8 µM [inhibitor, partial curve, poor fit].

How did the Potency turn out when `CC(C)Cn1c(Cc2ccccc2)n[nH]c1=S` was run?
The Potency was inconclusive: 7.94 µM [inhibitor, partial curve].

For `Cc1ccc(OCc2ccc(C(=O)N3CCOCC3)cc2)cc1C`, which Potency is on record?
The Potency was inconclusive: 28.2 µM [inhibitor, single point].

Which Potency does the source give for `Cc1ccc(C(=O)CSc2ncnc3sc4c(c23)CCCC4)cc1` here?
The Potency was inconclusive: 50.1 µM [inhibitor, single point].
